Measurements reported in publication PMC2686402 (The Journal of Cell Biology, 2009).

Target: the molecule itself
Test: SEC-MALS

B1: GFP-EB3 with 6xHIS tag, purified full-length EB3 fusion (natural protein)
chain: not shown
stoichiometry N: 2
